This note sets out measurements from PMC10668032.

Some of the results follow. At the low end of the ranking, values are background and their order means little.

This assay deals with SIX1 homeodomain (reference allele) (UniProt Q15475). The experiment in a line: universal protein binding microarray. Particulars: Universal all-10-mer PBM (8x60K, AMADID 030236), 300 nM GST-tagged protein, Alexa Fluor 488 anti-GST; buffer, salt, pH and temperature not stated; high values mean tight binding; most listed sequences are background and not binding sites; double strand, one strand shown.
AATAGGAG: the binding signal stood at 0.0185 E-score.
The figure for AAACAGAA is -0.212 E-score; for AAGCCTAC it is -0.139 E-score; for TAGCGAGA it is 0.0304 E-score.
For AGTGCAAG the value was -0.139 E-score; for GAGTGTCA, 0.219 E-score.
On to ACATAAGT, for which the binding signal was -0.175 E-score.
For AGTGTGTC the value was -0.0591 E-score.
The figure for CCAGCTCA is 0.0811 E-score; for ACGGCCCT it is -0.115 E-score.
In the case of GTGGAACA, the binding signal is -0.118 E-score.
Take AACACGCG: the binding signal was -0.0494 E-score.
Turning to AGACAACT, the binding signal was -0.168 E-score.
Turning to GAGGTCAC, the binding signal was -0.182 E-score.
For CTTTCCAA the value was -0.192 E-score; for TGGTGCAA, -0.215 E-score; for ACACAGGA, 0.065 E-score.
On to CGGACCGA, for which the binding signal stood at 0.0499 E-score.
With CCCGCATA, the binding signal was 0.127 E-score.
The figure for AGTCGCTA is -0.106 E-score; for GTTGTAAA it is -0.132 E-score.
The figure for GTAAATAA is -0.162 E-score; for CGCGGTCC it is -0.134 E-score; for CTTTTTTC it is -0.151 E-score.
For the sequence GCCCTATA, the binding signal was determined as 0.0666 E-score.
In the case of AAGCAGGG, the binding signal is -0.0764 E-score.
The figure for CTGCCCCC is -0.16 E-score; for CTCTCTGC it is -0.0385 E-score.
Consider TTAGAGAA, for which the binding signal is -0.234 E-score.
Take AACTTACC: the binding signal was -0.118 E-score.
On to GCCCGCTA, for which the binding signal is -0.0884 E-score.
For GATGCCCC, the binding signal stood at 0.101 E-score.
For the sequence GAATAAAC, the binding signal is -0.117 E-score.
The figure for CATCCATA is 0.081 E-score; for AAGTCATA it is -0.0827 E-score; for CAATGTAC it is -0.135 E-score.
The figure for TAGGACGA is 0.0643 E-score; for ACAGGCGC it is -0.206 E-score.
Regarding GTCTAGAA, the binding signal was -0.0166 E-score.
Consider AATCCGTA, for which the binding signal was found to be 0.138 E-score.
In the case of AGTTGATA, the binding signal stood at 0.406 E-score.
For CGGTCGCA, the binding signal was -0.169 E-score.
For AGGCCGCA the value was -0.126 E-score.
Consider CTTAGATA, for which the binding signal is 0.19 E-score.
For TCACAGCA the value was 0.00916 E-score; for CGCCTACC, -0.162 E-score; for CGAGTCGC, -0.0367 E-score.
The figure for CCCGCGAC is -0.0253 E-score; for CGATGTCC it is -0.209 E-score; for GGTGAACA it is -0.229 E-score.
Take ACAGCGAC: the binding signal is -0.164 E-score.
The figure for CCCATCTA is 0.0154 E-score.
For AGCGGGTG the value was 0.059 E-score; for CTGTAAAG, -0.146 E-score.
As to GTTATCAA, the binding signal was 0.0902 E-score.
The figure for ACTCGACT is -0.043 E-score; for ATTGATTG it is -0.0121 E-score; for AATAAAAA it is -0.23 E-score.
For CATGGAAG the value was -0.125 E-score.
As for CACAGTGG, the binding signal stood at 0.00931 E-score.
For ACGGTAAC the value was -0.0183 E-score.
The figure for CAGCGATA is 0.359 E-score; for CATGAGGA it is 0.147 E-score.
For GACGTTCC the value was -0.248 E-score; for TACGCCGA, -0.0265 E-score.
Consider GCAAGGAC, for which the binding signal is -0.257 E-score.
Turning to AAACATAA, the binding signal is -0.108 E-score.
For CGTTCTCA, the binding signal was 0.0662 E-score.
Turning to AACGGCGA, the binding signal amounted to 0.107 E-score.
The figure for CACAACTG is -0.0727 E-score; for CGCGATGC it is -0.00696 E-score.
The figure for AATTTCCT is -0.0683 E-score; for AGTAGATA it is 0.334 E-score.
As for GTAGCGTA, the binding signal amounted to 0.00387 E-score.
As for CCTCTGCG, the binding signal is -0.0705 E-score.
For ATTACCAA the value was -0.209 E-score.
For CTAGCTTC the value was -0.147 E-score; for GGAACTCC, -0.262 E-score.
For ACCAATAG the value was -0.0255 E-score; for CTCCCCGA, 0.0232 E-score; for CGCTGCGC, -0.162 E-score.
For ACAACTTG, the binding signal was -0.147 E-score.
The figure for CCGTCTTC is -0.131 E-score.
In the case of AGGACATA, the binding signal was -0.102 E-score.
On to TCGCTTAA, for which the binding signal is -0.124 E-score.
Turning to GATGTGCA, the binding signal was -0.21 E-score.
Take AGCCAGTA: the binding signal is -0.0381 E-score.
For the sequence CACGTTGG, the binding signal is -0.135 E-score.
On to CGAAATTC, for which the binding signal is -0.205 E-score.
For AATCTTGC the value was -0.162 E-score; for AGCGGTGG, -0.0839 E-score.
The figure for AGCAATAT is 0.143 E-score; for ATGCCGAC it is 0.103 E-score; for ACCTTCCC it is -0.0278 E-score.
With ATGAGCTC, the binding signal turned out to be 0.166 E-score.
For ACCGTAGG the value was -0.254 E-score; for CCCACCGC, -0.0305 E-score.
The figure for AATCTTAA is -0.27 E-score.
As for AAACATCG, the binding signal is -0.179 E-score.
For AAATGTAG the value was -0.194 E-score.
The figure for CCCTGAAA is -0.0661 E-score.
For GCATGCGA the value was 0.0225 E-score; for ACGGAACG, -0.161 E-score.
As for CGATAGAC, the binding signal came to 0.0748 E-score.
For AAGAGTCT the value was -0.275 E-score.
For TCCCTAGA the value was 0.0868 E-score.
For AGTCAAGG the value was -0.187 E-score; for CCAGGCGC, -0.127 E-score; for AGAAAAAC, -0.259 E-score.
For CGATAGTC, the binding signal was determined as 0.167 E-score.
